From PubChem BioAssay AID485360 (National Center for Advancing Translational Sciences (NCATS), 2010)
Out of some 230,000 compounds screened, about 1,500 (0.65%) were called active. The shares of active, inactive and inconclusive entries below differ from those in the screen. The call rests on the fitted dose curve; in most records, active means well fitted inhibition curve with a large enough effect; inconclusive means small, poorly fitted or top-dose-only effect; inactive means no such curve, though single readings can be large or run the other way. Potencies of inconclusive entries are doubtful fits and often do not repeat.

Each molecule was assayed against Lethal(3)malignant brain tumor-like protein 1 (Homo sapiens) (UniProt Q9Y468) (assay: qHTS Assay for the Inhibitors of L3MBTL1). Conditions: AlphaScreen L3MBTL1–H3K9me1 peptide binding; activity, negative = inhibition: at 57.1 µM (top of the series).
Chain of UniProt Q9Y468 (Q9Y468 whole entry, looked up): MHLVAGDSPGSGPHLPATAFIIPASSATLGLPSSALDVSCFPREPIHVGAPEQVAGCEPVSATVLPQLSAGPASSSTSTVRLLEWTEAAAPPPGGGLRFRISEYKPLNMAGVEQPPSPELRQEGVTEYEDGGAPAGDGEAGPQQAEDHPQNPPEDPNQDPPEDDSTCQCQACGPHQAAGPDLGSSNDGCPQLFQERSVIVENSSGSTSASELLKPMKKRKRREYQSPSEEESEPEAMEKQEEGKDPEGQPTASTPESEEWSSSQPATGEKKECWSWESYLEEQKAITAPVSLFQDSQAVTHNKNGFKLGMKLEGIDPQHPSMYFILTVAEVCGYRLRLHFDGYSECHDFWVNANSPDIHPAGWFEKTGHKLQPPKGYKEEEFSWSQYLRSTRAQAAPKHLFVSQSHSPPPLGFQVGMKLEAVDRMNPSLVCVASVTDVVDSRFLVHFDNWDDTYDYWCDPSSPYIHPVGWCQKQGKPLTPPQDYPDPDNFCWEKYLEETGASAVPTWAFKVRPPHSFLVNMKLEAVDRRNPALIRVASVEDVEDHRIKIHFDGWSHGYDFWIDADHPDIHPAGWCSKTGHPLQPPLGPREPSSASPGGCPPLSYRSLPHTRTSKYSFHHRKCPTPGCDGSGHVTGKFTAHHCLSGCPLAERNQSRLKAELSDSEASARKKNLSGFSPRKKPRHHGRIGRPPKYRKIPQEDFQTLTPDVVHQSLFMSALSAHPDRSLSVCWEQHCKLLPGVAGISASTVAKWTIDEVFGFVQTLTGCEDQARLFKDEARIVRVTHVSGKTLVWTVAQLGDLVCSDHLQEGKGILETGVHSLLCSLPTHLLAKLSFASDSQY
How it was run: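 L3MBTL1 (50 nM) pre-complexed 30 min with biotinylated H3(1-15)K9me1 peptide (75 nM), then compounds added for 30 min at room temperature; AlphaScreen streptavidin donor/nickel chelate acceptor beads (10 ug/mL final) read after 30 min dark incubation.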
Further: nearly all actives have a fitted effect of over 60% in size.
On the % scale 0 is the no-effect control and ±100 the full control effect; potency means the concentration at half of the fitted maximal effect; tags describe the fitted curve by direction and shape.

Compound | activity, negative = inhibition | Potency
CC(=O)Nc1ccc(CN2CCCN(C)CC2)cc1 | inactive: 0.476% | –
Cc1ccc(NC(=S)NNC(=O)c2cccc([N+](=O)[O-])c2)cc1Cl | – | inconclusive: 22.4 µM [inhibitor, single point]
COc1ccccc1N=C1NC(=O)/C(=C/c2ccc(N(C)C)cc2)S1 | – | inconclusive: 28.2 µM [inhibitor, single point]
O=C(Nc1nc(-c2ccccn2)cs1)c1ccccc1-n1cnnn1 | – | active: 20 µM
COc1ccc2nc(N3CCCCC3)c(/C=C3\SC(=S)NC3=O)cc2c1 | – | inconclusive: 22.4 µM [inhibitor, partial curve]
CCOC(=O)N1CCN(S(=O)(=O)c2ccc(F)c(C(=O)Nc3ccc(C(C)C)cc3)c2)CC1 | – | inconclusive: 6.31 µM [inhibitor, single point]
CN(c1ccccc1C(=O)O)S(=O)(=O)c1ccc2c3c(cccc13)C(=O)N2 | – | inconclusive: 31.6 µM [inhibitor, single point]
NS(=O)(=O)c1ccc(NC(=O)C(Sc2ccccc2)c2ccccc2)cc1 (centres undefined) | – | inconclusive: 39.8 µM [inhibitor, single point]
O=C(COC(=O)c1cccc(S(=O)(=O)N2CCc3ccccc32)c1)Nc1ncc(Cl)cc1Cl | – | inconclusive: 28.2 µM [inhibitor, partial curve]
C/C(=N\Nc1ccc2nncn2n1)c1ccco1 | inactive: 9.96% | –
COc1cccc(/C=C2\SC(=S)N(N3CCOCC3)C2=O)c1OC | – | inconclusive: 11.2 µM [inhibitor, partial curve]
COc1cc(N=Nc2ccc3ccccc3c2)ccc1O | – | inconclusive: 15.8 µM [inhibitor, partial curve]
O=C(CSc1ccccn1)N/N=C/c1ccccc1[N+](=O)[O-] | inactive: -6.04% | –
CCOC(=O)c1ccc(Nc2ncccc2[N+](=O)[O-])cc1 | inactive: -24.8% | –
CC(=O)c1c(C)[nH]c(C(=O)OCC(=O)c2c[nH]c3ccccc23)c1C | inactive: -0.858% | –
Cc1ncc(CO)c(/C=N/NC(=S)Nc2ccc(Cl)c(Cl)c2)c1O | – | inconclusive: 25.1 µM [inhibitor, single point]
O=C(COc1ccccc1[N+](=O)[O-])Nc1ccc2c(c1)CCC2 | inactive: -7.66% | –
O=C(OCCc1cc2ccccc2c(=O)o1)c1ccc2c(c1)OCO2 | – | inconclusive: 6.31 µM [inhibitor, single point]
CC/C(C)=N/NC(=O)c1[nH]c2ccc(C)cc2c1-c1ccccc1 | – | inconclusive: 39.8 µM [inhibitor, single point]
COc1cc(/C=C2\SC(=S)N(Nc3ccccc3)C2=O)cc(OC)c1OC | – | inconclusive: 20 µM [inhibitor, single point]
N#Cc1ccccc1S(=O)(=O)N1CCN(C(=O)C2COc3ccccc3O2)CC1 (centres undefined) | – | inconclusive: 39.8 µM [inhibitor, single point]
Cn1c(=O)n(-c2cccc(Cl)c2)c(=O)n1C | inactive: -8.28% | –
COc1ccc2c(c1)C(c1cccs1)=NNC(c1cccnc1)=N2 | – | inconclusive: 10 µM [inhibitor, full curve, poor fit]

Compound | activity, negative = inhibition | Potency
COc1ccc(C(=O)NCc2ccccc2)cc1Br | – | inconclusive: 4.47 µM [inhibitor, partial curve]
O=[N+]([O-])c1ccc(Sc2cccc[n+]2[O-])c2nonc12 | – | inconclusive: 28.2 µM [inhibitor, single point]
CN(C)c1ccc(C(CC(=O)O)C(=O)O)cc1 (centres undefined) | – | inconclusive: 39.8 µM [inhibitor, partial curve]
S=c1[nH]c(-c2ccc(Cl)cc2)cs1 | – | inconclusive: 5.01 µM [inhibitor, full curve, poor fit]
CC(C)(C)NC(=O)CN1C(=O)/C(=C/c2ccccc2)SC1=S | – | inconclusive: 5.62 µM [inhibitor, full curve, poor fit]
C=C1c2cccc(O)c2C(O)=C2C(=O)[C@]3(O)C(O)=C(C(N)=O)C(=O)[C@@H](N(C)C)[C@@H]3[C@@H](O)[C@H]12 | – | active: 0.891 µM
CC1CCN(c2oc(-c3ccccc3Cl)nc2C#N)CC1 | – | inconclusive: 28.2 µM [inhibitor, partial curve]
CCOc1ccc(NC2=C(OC)C(=O)c3ccccc3C2=O)cc1 | – | active: 25.1 µM
COc1cccc(C(=O)OCC(=O)Nc2sc3c(c2C(N)=O)CCC3)c1O | – | inconclusive: 31.6 µM [inhibitor, single point]
Oc1ccc(NCc2cccs2)cc1 | – | inconclusive: 39.8 µM [inhibitor, single point]
COc1cc(OC)cc(-c2nnc(SCC(=O)Nc3ccc(C(=O)O)cc3)s2)c1 | – | inconclusive: 39.8 µM [inhibitor, single point]
O=[N+]([O-])c1ccc(N2CCN(CCO)CC2)c2ncccc12 | inactive: 5.03% | –
Cc1cc(C)n(CC(=O)N/N=C/c2cc([N+](=O)[O-])ccc2O)n1 | – | inconclusive: 39.8 µM [inhibitor, single point]
Cc1ccccc1NC(=O)CSc1ccsc1[N+](=O)[O-] | – | active: 25.1 µM
C/C(CC(=O)Nc1ccc(N(C)C)cc1)=N\NC(=O)c1ccc([N+](=O)[O-])cc1 | – | inconclusive: 39.8 µM [inhibitor, single point]
O=C(Oc1c(CN2CCOCC2)cc(Cl)c2cccnc12)c1ccc(F)cc1 | – | inconclusive: 28.2 µM [inhibitor, single point]
CCOc1ccc(Nc2nc(N)nc(CSC(=S)N3CCN(c4ccccc4)CC3)n2)cc1 | – | inconclusive: 15.8 µM [inhibitor, partial curve]
CC(C)C(c1nnnn1Cc1ccco1)N1CCN(C2CCCC2)CC1 (centres undefined) | inactive: 4.9% | –
CC(=O)c1cccc(NC(=O)c2ccc(S(=O)(=O)N3CCCCC3)cc2)c1 | – | inconclusive: 1.78 µM [inhibitor, single point]
COc1ccc(OC)c(C(=O)c2ccc(C(=O)N3CCN(Cc4csc(C)n4)CC3)cc2)c1 | – | inconclusive: 39.8 µM [inhibitor, single point]
NS(=O)(=O)c1ccc(CCNC(=O)CCCCCNc2nc(=S)[nH]c3ccccc23)cc1 | – | inconclusive: 0.708 µM [inhibitor, single point]
COC(=O)[C@@]1(Cc2ccc(OC)cc2)[C@H]2c3cc(C(=O)N4CCCC4)n(Cc4ccc(C)o4)c3C[C@H]2CN1C(=O)c1ccccc1 | inactive: -7.71% | –
O=C1C(NS(=O)(=O)c2cccs2)=C(N2CCN(Cc3ccccc3)CC2)C(=O)c2ccccc21 | – | inconclusive: 39.8 µM [inhibitor, single point]

Compound | activity, negative = inhibition | Potency
S=C(c1c[nH]c2ccc(Br)cc12)N1CCOCC1 | – | inconclusive: 44.7 µM [inhibitor, single point]
CC(=O)/C(N=Nc1ccc(C(=O)O)cc1)=C(\C)O | inactive: -4.27% | –
CC(=O)Nc1nonc1-c1nc2ccccc2n1N(C(C)=O)C(C)=O | – | inconclusive: 39.8 µM [inhibitor, single point]
CS(=O)(=O)N(CC(=O)NCc1ccco1)c1ccc2c(c1)OCO2 | – | inconclusive: 28.2 µM [inhibitor, single point]
CC1Cc2ccccc2N1C(=O)COC(=O)c1c2c(nc3ccccc13)CCCCC2 (centres undefined) | inactive: -2.73% | –
CCc1ccc(Nc2n[n+](-c3ccccc3)c(-c3c(Cl)cccc3Cl)s2)cc1 | – | inconclusive: 28.2 µM [inhibitor, single point]
CN1CCc2c(sc3c2C(=O)NC(c2ccccn2)N3)C1 (centres undefined) | – | inconclusive: 39.8 µM [inhibitor, single point]
N#CC1(NC(=O)CSc2nnc(-c3ccccc3F)n2N)CCCCC1 | inactive: 4.33% | –
Cc1ccc(C(=O)C(C(=O)/C=C/c2ccccc2)=C2SCCCS2)cc1 | – | inconclusive: 12.6 µM [inhibitor, partial curve]
Cc1ccc(CCN=c2c([N+](=O)[O-])nn(-c3ccccc3)n2O)cc1 | – | inconclusive: 31.6 µM [inhibitor, single point]
CC(=O)c1c(C)[nH]c(-c2ccccc2)nc1=S | inactive: -4.24% | –
CCc1cc2c(=O)[nH]c(-c3ccccn3)nc2s1 | – | inconclusive: 25.1 µM [inhibitor, single point]
CC1=NN(c2ccccc2)C(=O)/C1=C\c1cn(C)c2ccccc12 | – | inconclusive: 0.501 µM [inhibitor, partial curve]
O=C(N/N=C/c1ccc2c(c1)OCO2)c1cc(-c2ccco2)nc2ccccc12 | – | inconclusive: 35.5 µM [inhibitor, single point]
O=C(O)c1ccccc1NS(=O)(=O)c1ccc2c3c(cccc13)C(=O)N2 | inactive: 6.19% | –
COc1ccc(NC(=O)/C(=C\c2ccc3c(c2)OCO3)NC(C)=O)cc1 | – | inconclusive: 6.31 µM [inhibitor, single point]
CC(=O)N1CCN(c2ccc(NCc3ccc(-c4cccc(Cl)c4)o3)cc2)CC1 | – | inconclusive: 39.8 µM [inhibitor, single point]
Cc1oc(C(=O)O)cc1COc1cccc2cccnc12 | – | active: 28.2 µM
Cc1ccc(N=Nc2ccc3ccccc3c2O)cc1 | – | inconclusive: 3.16 µM [inhibitor, full curve]
Cc1cccc(CC(=O)Nc2ccon2)c1 | – | inconclusive: 31.6 µM [inhibitor, single point]
Cc1ccc(C2(CCNCc3ccc(N(C)C)cc3)CCOC(C(C)C)C2)cc1 (centres undefined) | – | inconclusive: 39.8 µM [inhibitor, single point]
Nn1cc(-c2ccccc2)nc1SCC(=O)NC1CCS(=O)(=O)C1 (centres undefined) | inactive: 2.64% | –
Cn1cccc1C(=O)OCC(=O)NCc1ccc2c(c1)OCO2 | – | inconclusive: 31.6 µM [inhibitor, single point]
